The source gives no read counts; variants with many changes may rest on few reads.
B1: LINE1-full (parent)
chain: UACGUAGGUGGUUUUCCCCUGAUAGUGCUAAGGGGGCCUGGAAGUUUGGACUGGGCAGAGCUCAACACAGCGUGGCAAAGUGGCUGUGGCUAGACUGCCUCUCUGGAUUCCUCGUCACUCAGCAGGGCAUCUCUGAGAGAAAUGCC

Variants of: B1
Assay: self-cleavage, relative activity (ratio to wild type); higher = more cleavage; in vitro, sequencing; the parent is a self-cleaving ribozyme

| Variant | self-cleavage |
| --- | --- |
| UACGUAGGUGGUUUUCCCCCGAUAGUGCUAUGGGGGCCUGGAAGUUUGGACUGGGCAGAGCUCAACACAGCGUGGCAAAGUGGCUGUAGCUAGACUGCCUCUCUGGAUUCCUCGUCACUCAGCAGGGCAUCUCUGAGAGAAGUGCC [U20C A31U G88A A142G] | 0.04 |
| UACGUAGGUGGUUUUCCCCUGAUAGUGCUAAGGGGGCCUAGAAGUUUGGACGGGGCAGAGCUCAACACAGCGUGGCAAAGUGGCUGUGGCUAGACUGCCUCUCUGGAUUCCUCGUCACUCAGCAGGGCAUCUCUGAGAGGAAUGCC [G40A U52G A140G] | 1.1 |
| UACGUAGGUGGUUUUCCCCUGAUAGUGCUAAGGGGGCCUGGAAGUUUGGACUGGGCAGAGCUCAACACAGCGUGGCAAAGUGGCUGUGGCUAGACUGCCUCUCGGGAUUCCUCGUACCUCAGCAGGGCAUCUCUGAGAGAGAUGCC [U104G C116A A117C A141G] | 1.61 |
| UACGUAGGUGGUUUUCCCCUGAUAGUGCUAAGGGGGCCUGGAAGUUUGGACUGGGCAGAGCUCAACACUGCGCGGCAAAGUGGCUGUGGCUAGACUGCCUCUCUGGGUUCCUCGACACUCAGCAGGGCGUCUCUGAGAGAAGUGCC [A69U U73C A107G U115A A129G A142G] | 0 |
| UACGUAGGUGGUUCUCCCCUGAUAGUGCUAAGGGGGCCUGGAAGCUUGGACUGGGCAGGGCUCAACACAGCGUGGCAAAGUGGCUGCGGCUAGACUGCCUCUCUGGAUUCCUCGUCACUCAGCAGGGCAUCUCUGAGAGAAAUGCC [U14C U45C A59G U87C] | 0.92 |
| UACGUAGGUGGUUUUCCCCUGACAGUGCUAAGGGGGCCUGGAAGUUUGGACUGGGCAGAGCUCAACACAGCGUGGCGAAGUGGCUGUGGCUAGACUGCCUCUCUGGAUUCCUCGUCACUCAGCAGGGCAUCUCUGAGAGAAGUGCC [U23C A77G A142G] | 2.69 |
| UACGUAGGUGGUUUUCCCCUGAUAGUGCUAAGGGGGCCAGGAAGUUUGGACAGGGCAGAGCUCAACACCGCGUGGCGAAGUGGCUGUGGCUAGACUGCCUCUCUGGAUUCCUCGUCACUCAGCAGGGCGUCUCUGAGAGAAAUGCC [U39A U52A A69C A77G A129G] | 0.17 |
| UACGUAGGAGGUUUUCCCCUGAUAGAGCUAAGGGGGCCUGGAAGUUUGGACCGGGCAGAGCUCAACACAGCGUGGCAAAGUGGCUGUGGCUGGACUGCCUCUCUGGAUUCCUCGUCACUCAGCAGGGCAUCUCUGAGAGAAAUGCC [U9A U26A U52C A92G] | 0.29 |
| UACGUAGGUGGUUUUCCCCUGAUAGUGCUAAGUGGGCCUGUAAGUUUGAACUGGGCAGAGCUCAACACAGCGUGGCAAAGUGGCUGUGGCUAGACUGCCUCUCUGGAUUCCUCGUCACUCAGCAGGGCAUCUCUGAGAGAAAUGCC [G33U G41U G49A] | 0.98 |
| UACGUAGGUGGUUUUCCCAUGAUAGUGCUAGGGGGGCCUGGAAGUUUGGACUGGGCAGAGCUCAACACAGCGUGGCAAAGUGGCUGUGGCUAGACUGCCUCUCUGGAUUCCUCGUCACUCAGCAGGGCUUCUCUGGGAGAAAUGCC [C19A A31G A129U A136G] | 1.11 |
| UACGUAGGUGGUUUUCCCCUGAUAGUGCUAAGGGGGCCUGGAAGUUUGGACUGGGCAGAGCUCACCCCAGCGUGGCAAAGUGGCUGUGGCUAGACUGCCUCUCUGGAUUCCUCGACACUCAGCAGGGCAUCUCUGAGAGAAAUGCC [A65C A67C U115A] | 0 |
| UACGUGGGCGGUUUUCCCCUGAUAGUGCUAAGGGGGCCUGGAAGUUUGGACUGAGCAGAGCUCAACACAGCGUGGCAAAGUGGCUGUGGCUAGACUGCCUCUCUGGGUUCCUCGUCACUCAGCAGGGCAUCUCUGAGGGAAAUGCC [A6G U9C G54A A107G A138G] | 1.39 |
| UACGUAGGUGGUUUUCCCCUGAUAGUGCUAAGGGGGCCUGGAAGUUUGGACUGGGCUGAGCUCAACACAGCGUGGCAAAGUGGCUGUGGCUAGACUGCCUCUCAGGAUUCCUCGUCACUCAGCAGGGCAUCUCUGAGGGAAAUGCC [A57U U104A A138G] | 0.05 |
| UACGUAGAUGGUUUUCCCCUGAUAGUGCUAAGGGGGCCUGGAAGUUUGGACUGGGCAGAGCUCAACACAGCGUGGCAAAGUGGCUGUGGCUAGACUGCCUCUCUGGAUACCUCGUUACUCAGCAGGGCAUCUCUGAGAGAAAUGCC [G8A U109A C116U] | 1.01 |
| UACGUAGGUGGUUUUCCCCUGAUAGUGCUAAGGGGGCCUGGAAGUUUGGACUGGGCAGAGCUCAACACAGCGUGGCAAAGUAGCUGUGGCUAGACUGCCUCUCUGGAUUCCUCGUCACUCGGCAGGGCAUCUCUGAGUGAAAUGCC [G82A A121G A138U] | 1.91 |
| UACGUAGGUGGUUUUCCCCUGAUAGUGCUAAGGGGGCCUGGAAGUUUGGACUGGGCAGAGCUCAACACAGCGUGGCAAAGUAGCUGUGGCUAGACUGCCUCUCUGGAUUCCUCGUCACUCUGCAGGGCAUCUCCGAGAGAAAUGCC [G82A A121U U134C] | 2.05 |
| UACGUAGGUGGCUUUCCCUUGAUAGUGCUAAGGGGGCCUGGAAGUUUGGACUGGGCAGAGCUCAACACAGCGUGGCAAGGUGGCUGUGGCUAGACUGCCUCUCUGGAUUCCUCGUCACACAGCAGGGCAUCUCUGAGAGAAAUGCC [U12C C19U A79G U119A] | 0.4 |
| UACGUAGGUGGUUUUCCCCUGAUAGUGCUAAGGGGGCCUGGAAGUUUGGACUGGGCAGAGCUCAACACAGCGUGGCAAAGUGGCUGUGGCUAGACUGCCUCUCUGGAUUCCCCGUCGCUCAGCAGGGCAUCUCUGAGAGAGAUGCC [U112C A117G A141G] | 0.88 |
| UACGUAGGUGGUUUUCCCCUGAUAGUGCCAAGGGGGCCUGGAAGUUAGGACUGGGCAGAGCUCAACACAGCGUGGCAAAGUGGCUGUGGCUAGGCUGCCUCUCUGGAUUCCUCGUCACUCAGCAGGGCAUCUCUGAGAGAAAUGCC [U29C U47A A94G] | 0.46 |
| UACGAAGGUGGUUUUCCCCUGAUAGUGCUAAGGGGGCCUGGAAGUUUGGACUGGGCUGAGCACAACACAGCGUGGCAAAGUGGCUGUGGCUAGACGGCCUCUCUGGAUUCCUCGUCACUCAGCAGGGCAUCUCUGAGAGAAAUGCC [U5A A57U U62A U96G] | 0 |

From the RNAGym collection of RNA variant scans (doi:10.7554/elife.90254)
